Article PMC2939065
Substitutions are numbered along the chain they refer to. Results are given in words; binding and its absence hold for the method and conditions named. For some of these results: In cells and extracts the contact can be indirect. Some results given as binding are weak or reduced against the parent protein; the word gives no strength. One block for each binder: values may come before it.

The chains behind the UniProt entries cited, without tags or fusion partners. Residues count along the entry.
UniProt O08852, residues 24-4293: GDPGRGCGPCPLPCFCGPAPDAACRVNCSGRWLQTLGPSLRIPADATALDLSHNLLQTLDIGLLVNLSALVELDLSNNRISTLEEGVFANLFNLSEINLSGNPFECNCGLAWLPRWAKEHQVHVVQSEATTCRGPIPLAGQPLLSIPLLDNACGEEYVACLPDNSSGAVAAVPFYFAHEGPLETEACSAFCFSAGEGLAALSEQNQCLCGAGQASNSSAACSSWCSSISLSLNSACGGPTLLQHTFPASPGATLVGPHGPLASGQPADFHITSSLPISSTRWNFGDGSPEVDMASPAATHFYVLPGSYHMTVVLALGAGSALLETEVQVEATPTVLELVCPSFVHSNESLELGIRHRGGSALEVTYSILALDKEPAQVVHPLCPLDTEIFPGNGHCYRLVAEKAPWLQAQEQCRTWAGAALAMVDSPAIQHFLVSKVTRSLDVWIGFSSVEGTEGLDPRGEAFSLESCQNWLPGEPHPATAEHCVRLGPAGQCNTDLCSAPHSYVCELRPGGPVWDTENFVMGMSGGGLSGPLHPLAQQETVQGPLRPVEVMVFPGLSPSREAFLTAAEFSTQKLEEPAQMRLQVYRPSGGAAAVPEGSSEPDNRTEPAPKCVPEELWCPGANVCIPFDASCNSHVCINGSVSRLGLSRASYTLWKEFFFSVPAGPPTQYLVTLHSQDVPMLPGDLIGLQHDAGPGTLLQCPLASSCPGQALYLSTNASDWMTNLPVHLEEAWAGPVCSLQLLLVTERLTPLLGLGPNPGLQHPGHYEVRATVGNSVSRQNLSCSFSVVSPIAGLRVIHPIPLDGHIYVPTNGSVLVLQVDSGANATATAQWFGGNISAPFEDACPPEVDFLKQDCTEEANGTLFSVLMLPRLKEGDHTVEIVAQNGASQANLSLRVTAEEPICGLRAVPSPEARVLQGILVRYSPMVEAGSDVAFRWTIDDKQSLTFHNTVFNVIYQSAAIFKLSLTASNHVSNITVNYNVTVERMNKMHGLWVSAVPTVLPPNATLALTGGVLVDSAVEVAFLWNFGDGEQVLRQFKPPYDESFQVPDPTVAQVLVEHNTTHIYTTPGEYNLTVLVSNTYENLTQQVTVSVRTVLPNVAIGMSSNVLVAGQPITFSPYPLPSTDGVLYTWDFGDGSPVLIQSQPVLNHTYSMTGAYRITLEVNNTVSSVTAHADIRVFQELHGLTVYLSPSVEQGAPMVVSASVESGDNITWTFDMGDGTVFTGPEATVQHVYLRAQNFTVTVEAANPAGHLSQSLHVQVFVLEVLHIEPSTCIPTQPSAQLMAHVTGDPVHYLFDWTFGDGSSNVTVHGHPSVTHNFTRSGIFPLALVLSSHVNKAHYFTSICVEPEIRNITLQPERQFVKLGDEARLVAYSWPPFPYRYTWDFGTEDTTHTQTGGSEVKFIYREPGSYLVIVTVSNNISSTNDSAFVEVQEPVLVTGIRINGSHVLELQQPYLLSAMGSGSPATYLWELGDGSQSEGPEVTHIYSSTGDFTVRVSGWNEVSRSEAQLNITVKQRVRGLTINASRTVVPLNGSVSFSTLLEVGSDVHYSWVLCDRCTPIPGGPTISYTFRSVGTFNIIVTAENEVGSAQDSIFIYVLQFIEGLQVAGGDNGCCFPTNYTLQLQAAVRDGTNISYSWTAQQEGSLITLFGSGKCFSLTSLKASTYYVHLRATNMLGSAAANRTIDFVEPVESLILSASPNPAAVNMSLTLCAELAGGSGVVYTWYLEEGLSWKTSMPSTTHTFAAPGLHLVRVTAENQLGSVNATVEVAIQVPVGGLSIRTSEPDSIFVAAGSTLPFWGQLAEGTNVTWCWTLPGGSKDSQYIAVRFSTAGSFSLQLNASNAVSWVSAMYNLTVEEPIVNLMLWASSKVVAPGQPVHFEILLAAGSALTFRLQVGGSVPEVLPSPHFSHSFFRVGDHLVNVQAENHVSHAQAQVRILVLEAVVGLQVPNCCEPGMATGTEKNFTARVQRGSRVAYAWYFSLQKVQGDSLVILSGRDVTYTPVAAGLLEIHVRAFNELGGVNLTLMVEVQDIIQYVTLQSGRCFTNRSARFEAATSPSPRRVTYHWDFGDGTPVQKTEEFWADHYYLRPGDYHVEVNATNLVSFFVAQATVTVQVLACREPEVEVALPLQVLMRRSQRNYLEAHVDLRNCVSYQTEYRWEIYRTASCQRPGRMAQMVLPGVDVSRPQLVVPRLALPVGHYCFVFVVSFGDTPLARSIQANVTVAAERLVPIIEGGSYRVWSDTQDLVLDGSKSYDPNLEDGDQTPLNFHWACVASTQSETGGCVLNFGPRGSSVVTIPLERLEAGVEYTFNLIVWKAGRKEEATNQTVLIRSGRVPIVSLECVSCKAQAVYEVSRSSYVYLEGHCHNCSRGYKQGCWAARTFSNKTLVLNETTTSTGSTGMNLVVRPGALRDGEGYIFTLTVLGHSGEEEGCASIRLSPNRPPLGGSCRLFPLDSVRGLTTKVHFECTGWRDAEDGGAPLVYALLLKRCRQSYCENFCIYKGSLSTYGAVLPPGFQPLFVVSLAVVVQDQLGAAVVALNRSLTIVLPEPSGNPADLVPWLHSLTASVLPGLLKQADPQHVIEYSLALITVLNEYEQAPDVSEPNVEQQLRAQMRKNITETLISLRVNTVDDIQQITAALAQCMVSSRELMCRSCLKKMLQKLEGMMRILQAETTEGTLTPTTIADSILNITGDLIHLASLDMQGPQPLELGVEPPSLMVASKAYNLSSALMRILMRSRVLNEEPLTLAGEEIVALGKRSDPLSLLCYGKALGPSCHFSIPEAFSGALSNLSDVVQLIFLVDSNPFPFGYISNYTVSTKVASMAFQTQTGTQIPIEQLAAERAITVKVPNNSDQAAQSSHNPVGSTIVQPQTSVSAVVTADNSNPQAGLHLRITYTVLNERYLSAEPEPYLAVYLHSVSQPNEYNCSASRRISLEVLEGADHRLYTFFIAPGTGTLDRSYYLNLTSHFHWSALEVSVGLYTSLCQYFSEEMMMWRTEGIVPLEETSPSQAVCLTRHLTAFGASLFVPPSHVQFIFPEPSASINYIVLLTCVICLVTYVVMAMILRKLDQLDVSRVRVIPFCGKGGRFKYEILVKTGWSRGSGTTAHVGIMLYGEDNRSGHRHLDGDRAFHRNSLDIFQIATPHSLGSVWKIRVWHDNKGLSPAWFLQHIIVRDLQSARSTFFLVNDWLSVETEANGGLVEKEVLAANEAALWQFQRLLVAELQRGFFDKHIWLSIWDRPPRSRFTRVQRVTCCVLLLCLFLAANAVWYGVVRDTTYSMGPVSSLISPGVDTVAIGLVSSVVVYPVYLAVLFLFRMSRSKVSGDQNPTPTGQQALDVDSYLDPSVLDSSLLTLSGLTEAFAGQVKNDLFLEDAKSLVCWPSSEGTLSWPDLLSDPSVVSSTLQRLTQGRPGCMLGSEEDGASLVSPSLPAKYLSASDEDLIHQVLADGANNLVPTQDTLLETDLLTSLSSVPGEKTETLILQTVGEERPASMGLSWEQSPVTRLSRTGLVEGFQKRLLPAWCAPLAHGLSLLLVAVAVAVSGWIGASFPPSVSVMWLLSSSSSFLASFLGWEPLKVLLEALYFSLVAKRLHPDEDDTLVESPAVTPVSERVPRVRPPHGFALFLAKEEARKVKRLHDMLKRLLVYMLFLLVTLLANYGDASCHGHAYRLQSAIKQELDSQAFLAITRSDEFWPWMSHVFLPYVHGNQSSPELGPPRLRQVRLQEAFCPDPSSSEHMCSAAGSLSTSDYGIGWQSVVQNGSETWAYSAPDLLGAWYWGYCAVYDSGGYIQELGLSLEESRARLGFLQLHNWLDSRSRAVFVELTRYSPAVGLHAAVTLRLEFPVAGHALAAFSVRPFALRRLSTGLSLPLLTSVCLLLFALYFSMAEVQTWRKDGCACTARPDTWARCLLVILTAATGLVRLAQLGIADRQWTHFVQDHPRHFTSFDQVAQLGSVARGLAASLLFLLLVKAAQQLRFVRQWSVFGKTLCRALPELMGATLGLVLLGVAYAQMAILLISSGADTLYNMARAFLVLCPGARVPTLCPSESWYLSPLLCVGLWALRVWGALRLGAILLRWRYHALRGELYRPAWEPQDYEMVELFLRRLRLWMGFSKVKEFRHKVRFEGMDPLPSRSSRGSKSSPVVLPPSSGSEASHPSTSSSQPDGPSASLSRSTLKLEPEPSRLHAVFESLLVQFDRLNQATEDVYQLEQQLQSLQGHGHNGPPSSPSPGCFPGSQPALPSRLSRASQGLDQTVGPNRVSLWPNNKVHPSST

Tests used:
[1] = molecular target: endogenous HA-tagged PC-1 (Pkd1 HA/HA MEFs) (mouse (endogenous in MEFs)) (UniProt O08852); assay: co-IP; endogenous proteins in MEFs from Pkd1 HA/HA or Pkd1 Myc/Myc mice; immunoprecipitation of tagged endogenous PC-1, blot for NPHP1; Pkd1 +/+ cells as control
[2] = molecular target: endogenous Myc-tagged PC-1 (Pkd1 Myc/Myc cells) (mouse (endogenous in MEFs)) (UniProt O08852); assay: as above
[3] = molecular target: T1, NPHP1-SH3 (15N-labelled SH3 domain of nephrocystin-1 for NMR and ITC) (human) (UniProt O15259); assay: NMR titration; 1H-15N HSQC of 15N NPHP1-SH3 (0.3 mM) with added peptide (0, 0.5, 1, 1.5, 2, 3, 4 equivalents for peptPP2); fast exchange; both purified
T1 sequence: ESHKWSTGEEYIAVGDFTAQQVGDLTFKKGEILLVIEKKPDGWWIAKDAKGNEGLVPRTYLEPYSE

[4] = molecular target: T1, NPHP1-SH3 (15N-labelled SH3 domain of nephrocystin-1 for NMR and ITC) (human); assay: ITC; peptPP2 with NPHP1-SH3; integrated data corrected for heat of dilution, fit to a single site binding model; both purified
[5] = molecular target: T2, NPHP1-SH3-P203L (for NMR) (human) (UniProt O15259); assay: NMR titration; 1H-15N HSQC of 15N NPHP1-SH3 (0.3 mM) with added peptide (0, 0.5, 1, 1.5, 2, 3, 4 equivalents for peptPP2); fast exchange; both purified
T2 sequence: T1 sequence with P57L

binding [1]: binds
binding [2]: binds
B1: endogenous NPHP1 (mouse embryonic fibroblasts) (protein, UniProt Q9QY53 1-687)
chain: MLARRPRDPLQALRRRGQELKLQVDSLVTESQLTGALEPSKRREIYQRCIQLKQAVDENKNTLQKLNKADEAAPVGNYEQRKEEEHSLLEKLACQLQELAVSISRKDALKVEAHSDKEEDDTTEDDEEETGGEEEESEGDGEGKQEQASPKQAETETVTYIALGDFAAQQTGDLTFKKGDVLHIIEKKPDGWWLAKDAEGVEGLIPRTYLEPYNKEDKLESSEGSEEGGEEDGEEDVEVVDETADGAQVKQRTDSHWSAVRKAISEQINTVDVLATMGAIPAGFRPSTLSQLLDEAGNQFRASYFLQPELTTSQLAFRDLTWDAKAGTIMSRPSRVSLILTLWSCKMIPLPGTSIQVLSRHIRLCLFDGSKVLSNIHTVRAVWQPKKPKTWTFSPQVTGILPCLLDGDCFIRSNSSTPDLGILFELGISYIRNSTGERGELSCGWVFLKLFDASGVPIPAKTYELFLNGGTPYEKGVEVDPSVSRRAQGSVFRQMISVRRQPQLLVKLRSLNRRSRAMLSLLPETLVGSMCSAHLLIFYRQILGDVLLRDRTNLQSADLISHPVLATFPLLLEQPDVMDALRSSWSEKESTLKRAEKRDKELLKAEFLLVYHDCVLPLLHSTLLPPFRWAEEETEAARWKAIADFLKQSRENEGSLKALLSPDGVHKPFDLSEQTFDFLGEIRKNSG

binding [3]: no binding
B2: peptPP1 (peptide)
peptide: RGSKVSPDVPPPS
modifications: N-terminus acetylated, C-terminus amidated

binding [3]: no binding
B3: peptPL1 (peptide)
peptide: RGSKVSPDVLPPS
modifications: N-terminus acetylated, C-terminus amidated

binding [3]: no binding
B4: peptPL2 (peptide)
peptide: GLRPALLSRLARAS
modifications: N-terminus acetylated, C-terminus amidated

binding [4]: binds weakly
binding [5]: no binding
B5: peptPP2 (peptide)
peptide: GLRPALPSRLARAS
modifications: N-terminus acetylated, C-terminus amidated
